# Measured values from PubChem BioAssay (NCATS).
# “And” between values parts separate entries of the source, which are not always exact repeats. Equal entries are not always repeated. This list was built around the results that the source calls inconclusive (neither active nor inactive); the mix of calls is not that of the screen. For some of these results: Potencies of inconclusive entries are left out as doubtful fits. The source made the active and inactive calls. Unless noted, calls come from the whole dose curve; as a rule, active = well fitted curve in the direction sought with a large enough effect; inconclusive = small, poorly fitted or top-dose-only effect, or another doubt; inactive = no such curve, though single readings can be large; an effect the other way counts as inactive or inconclusive.
# Assays:
# [1] = molecular target: Cytochrome P450 2C9 (Homo sapiens) (UniProt P11712); test: Cytochrome P450 family 2 subfamily C member 9 (CYP2C9) small molecule antagonists: luciferase biochemical (cell-free) qHTS assay (AID 1645842; active = well fitted curve in the direction sought with a large enough effect in the repeat runs; inconclusive = weak or mixed curves; inactive = no such curve, though single readings can be large; an effect the other way counts as inactive or inconclusive; note: potency is the fitted concentration of half-maximal effect; nearly all actives have a fitted effect of over 55% in size)
# Sequence of UniProt P11712 (P11712 whole entry, looked up): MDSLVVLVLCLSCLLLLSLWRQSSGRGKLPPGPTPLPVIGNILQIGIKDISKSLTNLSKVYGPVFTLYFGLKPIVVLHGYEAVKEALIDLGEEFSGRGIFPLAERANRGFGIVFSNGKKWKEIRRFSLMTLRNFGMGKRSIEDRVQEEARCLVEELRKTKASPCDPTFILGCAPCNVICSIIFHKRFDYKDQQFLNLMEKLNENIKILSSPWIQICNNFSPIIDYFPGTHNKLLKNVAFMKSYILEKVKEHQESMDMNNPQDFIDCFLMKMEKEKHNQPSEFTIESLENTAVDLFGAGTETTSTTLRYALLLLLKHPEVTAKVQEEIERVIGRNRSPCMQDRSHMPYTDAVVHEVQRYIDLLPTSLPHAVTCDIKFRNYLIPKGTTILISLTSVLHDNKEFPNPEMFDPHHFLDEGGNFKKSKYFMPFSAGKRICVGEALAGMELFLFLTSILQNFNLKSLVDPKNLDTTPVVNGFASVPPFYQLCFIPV
# Summary of the method: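 P450-Glo CYP2C9 system: proluciferin substrate with enzyme in mix containing 0.4% BSA, 10 min at room temperature, then NADPH regeneration solution added and incubated 1 h at 37C. Detection reagent stopped reaction; luminescence read after 20 min as RLU.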
# [2] = molecular target: Phospholipid hydroperoxide glutathione peroxidase GPX4 (Homo sapiens) (UniProt P36969); test: Primary qHTS Assay for Inhibitors of Recombinant Selenoprotein Glutathione Peroxidase 4 (GPX4) (AID 1845192); settings: activity change, negative = inhibition: at 50 µM (top of the series); note: potency is the fitted concentration of half-maximal effect; nearly all actives have a fitted effect of over 65% in size
# Sequence of UniProt P36969 (P36969 whole entry, looked up): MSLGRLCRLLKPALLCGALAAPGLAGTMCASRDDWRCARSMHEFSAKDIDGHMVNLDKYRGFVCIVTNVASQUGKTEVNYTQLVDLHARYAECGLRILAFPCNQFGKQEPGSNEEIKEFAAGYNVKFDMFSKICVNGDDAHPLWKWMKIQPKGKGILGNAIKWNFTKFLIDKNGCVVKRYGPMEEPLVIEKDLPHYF
# Summary of the method: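 qHTS, GR-coupled: GPX4 200 nM + cpd 30 min RT → GSH 1 mM, NADPH 0.5 mM, GR 100 nM → CHP 0.5 mM start; fluor 340/450 at t0 and t15 min; no-enzyme wells as control.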
# Papain (Carica papaya) = Papain (Carica papaya) (UniProt P00784); test: Primary qHTS assay for inhibitors of the protease papain (AID 1645873);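 note: papain turnover of Z-FR-AMC read as the AMC fluorescence gain over 10 min; potency is the fitted concentration of half-maximal effect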
# Sequence of UniProt P00784 (P00784 whole entry, looked up): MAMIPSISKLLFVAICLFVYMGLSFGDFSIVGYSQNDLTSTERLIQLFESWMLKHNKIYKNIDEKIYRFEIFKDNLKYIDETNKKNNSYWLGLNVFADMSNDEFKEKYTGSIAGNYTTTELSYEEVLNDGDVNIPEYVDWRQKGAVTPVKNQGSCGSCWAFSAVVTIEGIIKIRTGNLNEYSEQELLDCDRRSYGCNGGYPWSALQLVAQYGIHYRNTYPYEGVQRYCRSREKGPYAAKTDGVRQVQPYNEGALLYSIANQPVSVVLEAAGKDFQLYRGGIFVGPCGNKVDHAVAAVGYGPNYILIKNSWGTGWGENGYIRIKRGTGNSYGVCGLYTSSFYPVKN
# [3] = molecular target: N-terminal Xaa-Pro-Lys N-methyltransferase 1 (Homo sapiens) (UniProt Q9BV86); test: Confirmatory qHTS for Inhibitors of N-terminal methyltransferase 1 (NTMT1): MTaseGlo Assay (AID 1645874); note: nearly all actives have a fitted effect of over 65% in size; note: potency is the fitted concentration of half-maximal effect;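 for activity change, negative = inhibition: luminescence from SAH made as NTMT1 methylates SPKRIA peptide using SAM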
# Sequence of UniProt Q9BV86 (Q9BV86 whole entry, looked up): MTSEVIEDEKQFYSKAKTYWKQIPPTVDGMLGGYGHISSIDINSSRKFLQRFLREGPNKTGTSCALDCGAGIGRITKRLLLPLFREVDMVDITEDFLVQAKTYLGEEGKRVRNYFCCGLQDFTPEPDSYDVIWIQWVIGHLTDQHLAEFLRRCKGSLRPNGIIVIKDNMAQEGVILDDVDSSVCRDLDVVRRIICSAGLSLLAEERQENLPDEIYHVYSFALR
# Summary of the method: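 SPKRIA peptide at 1 uM was methylated by 125 nM NTMT1 using 100 uM SAM over 30 min at room temperature, following a 15 min compound preincubation. Product SAH was detected luminescently.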
# [4] = Primary qHTS for inhibitors of nuclear receptor binding SET domain protein 2 (NSD2) in an RCH-ACV wild type WT cells (2C) (AID 1645877); note: potency is the fitted concentration of half-maximal effect; nearly all actives have a fitted effect of over 70% in size
# [5] = molecular target: Rap guanine nucleotide exchange factor 3 (Homo sapiens) (UniProt O95398); test: Confirmatory qHTS for antagonist of cAMP-regulated guanine nucleotide exchange factor 3 (EPAC1) (AID 1645880); note: potency is the fitted concentration of half-maximal effect; nearly all actives have a fitted effect of over 55% in size
# Sequence of UniProt O95398 (O95398 whole entry, looked up): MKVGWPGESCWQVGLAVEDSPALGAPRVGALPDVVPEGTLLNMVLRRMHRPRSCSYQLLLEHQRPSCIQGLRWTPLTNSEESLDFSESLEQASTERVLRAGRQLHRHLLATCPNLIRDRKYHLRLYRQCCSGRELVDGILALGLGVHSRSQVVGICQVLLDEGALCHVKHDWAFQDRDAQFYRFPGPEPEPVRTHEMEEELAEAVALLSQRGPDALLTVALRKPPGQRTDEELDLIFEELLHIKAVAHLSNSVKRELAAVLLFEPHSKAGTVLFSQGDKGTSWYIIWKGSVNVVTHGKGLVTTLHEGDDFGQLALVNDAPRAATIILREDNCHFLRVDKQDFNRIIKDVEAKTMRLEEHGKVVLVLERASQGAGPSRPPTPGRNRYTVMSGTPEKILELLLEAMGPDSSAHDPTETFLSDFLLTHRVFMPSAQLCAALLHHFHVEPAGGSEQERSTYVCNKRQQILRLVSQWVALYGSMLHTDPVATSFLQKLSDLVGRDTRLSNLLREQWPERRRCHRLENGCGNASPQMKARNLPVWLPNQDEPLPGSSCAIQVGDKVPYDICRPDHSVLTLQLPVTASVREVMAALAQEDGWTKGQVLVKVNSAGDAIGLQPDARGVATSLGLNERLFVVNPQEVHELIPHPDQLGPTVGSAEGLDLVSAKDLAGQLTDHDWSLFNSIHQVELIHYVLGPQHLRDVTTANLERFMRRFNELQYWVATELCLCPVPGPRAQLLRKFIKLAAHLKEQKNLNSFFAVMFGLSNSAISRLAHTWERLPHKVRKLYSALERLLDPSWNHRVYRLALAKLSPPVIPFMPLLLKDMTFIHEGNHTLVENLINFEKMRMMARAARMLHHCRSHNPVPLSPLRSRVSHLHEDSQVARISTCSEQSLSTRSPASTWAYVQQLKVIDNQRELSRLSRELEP
# Summary of the method: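 Released BODIPY-GDP fluoresces less than Rap1-bound BODIPY-GDP; the signal is followed at 480/540 nm at 5-min intervals over 30 min, after 5 min at room temperature. Reactions contain 100 nM EPAC1, 250 nM RAP1B-BODIPY-GDP and 50 uM GDP; results are normalized to ATA and DMSO.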
# [6] = molecular target: Rap guanine nucleotide exchange factor 4 (Homo sapiens) (UniProt Q8WZA2); test: Confirmatory qHTS for antagonist of cAMP-regulated guanine nucleotide exchange factor 4 (EPAC2) (AID 1645885); note: potency is the fitted concentration of half-maximal effect; nearly all actives have a fitted effect of over 25% in size
# Sequence of UniProt Q8WZA2 (Q8WZA2 whole entry, looked up, the tested form may be a part): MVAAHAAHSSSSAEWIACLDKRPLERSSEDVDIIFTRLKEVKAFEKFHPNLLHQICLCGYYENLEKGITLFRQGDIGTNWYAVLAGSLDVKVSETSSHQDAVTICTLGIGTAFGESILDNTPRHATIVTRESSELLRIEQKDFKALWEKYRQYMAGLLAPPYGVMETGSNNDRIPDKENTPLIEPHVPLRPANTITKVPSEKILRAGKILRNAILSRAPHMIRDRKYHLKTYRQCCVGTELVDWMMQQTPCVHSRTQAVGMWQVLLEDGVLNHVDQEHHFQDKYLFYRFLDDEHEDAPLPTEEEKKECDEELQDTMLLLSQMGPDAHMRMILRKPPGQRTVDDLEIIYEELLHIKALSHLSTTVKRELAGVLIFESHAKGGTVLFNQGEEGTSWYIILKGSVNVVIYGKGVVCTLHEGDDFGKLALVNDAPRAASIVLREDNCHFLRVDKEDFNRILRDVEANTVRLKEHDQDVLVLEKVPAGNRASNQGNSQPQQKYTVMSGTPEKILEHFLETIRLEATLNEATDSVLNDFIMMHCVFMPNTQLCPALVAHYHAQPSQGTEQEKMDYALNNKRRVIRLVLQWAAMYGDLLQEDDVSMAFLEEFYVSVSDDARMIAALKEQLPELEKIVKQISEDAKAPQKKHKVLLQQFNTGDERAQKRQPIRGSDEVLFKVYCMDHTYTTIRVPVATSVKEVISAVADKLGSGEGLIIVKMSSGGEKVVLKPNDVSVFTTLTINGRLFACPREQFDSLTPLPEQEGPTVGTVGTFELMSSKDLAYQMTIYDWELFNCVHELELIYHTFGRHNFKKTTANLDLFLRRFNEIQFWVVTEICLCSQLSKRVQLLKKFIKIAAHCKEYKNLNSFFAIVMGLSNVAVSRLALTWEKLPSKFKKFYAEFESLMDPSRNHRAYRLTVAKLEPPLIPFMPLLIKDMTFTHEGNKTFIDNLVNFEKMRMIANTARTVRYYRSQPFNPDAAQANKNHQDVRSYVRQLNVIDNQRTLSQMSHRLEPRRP
# [7] = Primary qHTS for inhibitors of nuclear receptor binding SET domain protein 2 (NSD2) in an isogenic RCH-ACV NSD2 p.E1099K mutant (9B) (AID 1645876); note: potency is the fitted concentration of half-maximal effect; nearly all actives have a fitted effect of over 70% in size
# [8] = molecular target: Luciferin 4-monooxygenase (Photinus pyralis) (UniProt P08659); test: Primary firefly luciferase (FLuc) qHTS assay for identification of artifact compounds. (AID 1845220); note: nearly all actives have a fitted effect of over 60% in size
# Summary of the method: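 In this counter-screen for luciferase artifacts, test compounds met substrate (10 uM each luciferin and ATP) before 10 nM enzyme started the reaction. Light output was measured 5 min later.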
# [9] = molecular target: Metallo-beta-lactamase type 2 (Klebsiella pneumoniae) (UniProt C7C422); test: qHTS to identify inhibitors of the New Delhi Metallo-beta-lactamase (NDM): assay validation screen against the NCATS LOPAC Collection (AID 1794843); note: potency is the fitted concentration of half-maximal effect
# Sequence of UniProt C7C422 (C7C422 whole entry, looked up): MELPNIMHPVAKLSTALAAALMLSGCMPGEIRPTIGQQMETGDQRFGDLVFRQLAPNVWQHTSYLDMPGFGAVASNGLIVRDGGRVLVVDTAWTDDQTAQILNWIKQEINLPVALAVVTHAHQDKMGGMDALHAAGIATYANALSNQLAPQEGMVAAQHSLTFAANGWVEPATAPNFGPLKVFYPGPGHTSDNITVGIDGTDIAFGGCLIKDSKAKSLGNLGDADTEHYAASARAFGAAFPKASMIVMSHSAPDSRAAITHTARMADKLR
# Summary of the method: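 NDM-1 at 2 nM final in 50 mM HEPES pH 7.0 with 1 uM ZnSO4 and 0.01% Tween20 was preincubated with library compounds in DMSO. Nitrocefin (50 uM stock) was then added, and absorbance at 485 nm was read at the kinetic plateau.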
# Tags give direction and shape of the fitted curve.
smiles,measurement,setting,value
CC1(C)Cc2c(sc(NC(=S)NC(=O)c3ccccc3)c2C(=O)O)CO1,Potency,[1],active: 19 µM
same,Potency,[2],"inconclusive [inhibitor, single point]"
O=C(Nc1cccc(C(=O)Nc2ccc(S(=O)(=O)O)c3cc(S(=O)(=O)O)cc(S(=O)(=O)O)c23)c1)Nc1cccc(C(=O)Nc2ccc(S(=O)(=O)O)c3cc(S(=O)(=O)O)cc(S(=O)(=O)O)c23)c1,Potency,Papain (Carica papaya),active: 3.16 µM
O=C1NC(=O)/C(=C/c2ccc(-c3ccc(F)cc3O)o2)S1,Potency,[3],active: 34.5 µM
same,Potency,[4],active: 10.5 µM
same,Potency,[5],active: 55.9 µM
same,Potency,[6],active: 9.87 µM
CNCc1ccc(-c2[nH]c3cc(F)cc4c3c2CCNC4=O)cc1,Potency,[3],"inconclusive [inhibitor, partial curve, poor fit]"
same,Potency,[7],active: 16.3 µM and active: 11.8 µM
same,Potency,[4],active: 7.28 µM and active: 7.42 µM
same,Potency,[2],active: 11.4 µM and active: 12.8 µM and active: 15.8 µM
same,Potency,[8],inactive
N.N.O=C(O)C1(C(=O)O)CCC1.[Pt+2],Potency,Papain (Carica papaya),"inconclusive [inhibitor, partial curve]"
same,Potency,[9],active: 3.98 µM
O=C(O)c1cccc(-c2noc(-c3ccccc3F)n2)c1,Potency,[3],inactive
same,Potency,[7],"inconclusive [inhibitor, partial curve]"
same,Potency,[4],"inconclusive [inhibitor, partial curve]"
Oc1ccc(C2=Cc3ccc(O)cc3OC2)cc1,Potency,[3],"inconclusive [inhibitor, partial curve]"
same,Potency,[7],active: 1.18 µM
